Data published in PubChem BioAssay AID686979 (National Center for Advancing Translational Sciences (NCATS), 2013).
The whole screen tested about 420,000 compounds, of which about 50,000 (12%) were called active. Inconclusive means that the source gave no clear call. Such entries were picked first, then a sample of the others. The call rests on the fitted dose curve; in most records, active means well fitted inhibition curve with a large enough effect; inconclusive means small, poorly fitted or top-dose-only effect; inactive means flat fitted curve, though single readings scatter. No potency is given beside an inconclusive call; the fits are too rough.

Test: qHTS for Inhibitors of human tyrosyl-DNA phosphodiesterase 1 (TDP1): qHTS in cells in presence of CPT; further: nearly all actives have a fitted effect of over 55% in size
Settings: chicken DT40 Tdp1-/-;hTDP1 cells + 20 nM CPT, ATP luminescence, 48 h; activity change, negative = growth inhibition: at 46.2 µM (top of the series)
Outline: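 Chicken DT40 Tdp1-/- cells stably complemented with human TDP1 were seeded at 400 cells/well in medium containing 20 nM camptothecin, exposed to pin-transferred compounds, and grown at 37 °C for at least 48 hr. Viability was read as ATP luminescence.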
On the % scale 0 is the no-effect control and ±100 the full control effect; potency means the concentration at half of the fitted maximal effect; tags describe the fitted curve by direction and shape.

| SMILES | Potency | activity change, negative = growth inhibition |
| --- | --- | --- |
| COC(=O)CC1=NN(c2ccc(OC)cc2)C(=O)/C1=C\c1ccc(Cl)cc1 | inconclusive [inhibitor, single point] | – |
| Cc1ccsc1C(=O)N(C)CC(=O)Nc1ccccc1Br | – | inactive: -2.41% |
| Cc1cc(C(=O)CSc2cccc[n+]2[O-])c(C)n1-c1ccccc1 | – | inactive: -16.2% |
| C=CCN(c1ccccc1)S(=O)(=O)c1ccc2c(c1)oc(=O)n2C | inconclusive [inhibitor, partial curve] | – |
| CC(=O)c1ccc2c3c(cccc13)CC2 | – | inactive: 2.87% |
| Cc1ccccc1Cn1c(=O)n(CC2CCC(C(=O)N3CCC(C)CC3)CC2)c(=O)c2sccc21 (centres undefined) | active: 23.1 µM | – |
| O=C(NC(Sc1ccc(Cl)cc1)C(=O)O)c1ccccc1 (centres undefined) | active: 20.6 µM | – |
| COCC(=O)Nc1nc2n(n1)C(c1ccc(Cl)cc1)CC(c1ccc(OC)cc1)N2 (centres undefined) | inconclusive [inhibitor, single point] | – |
| O=c1cc(-c2cccc(Br)c2)oc2cccc(O)c12 | – | inactive: -23.5% |
| COc1ccc(Cl)cc1S(=O)(=O)N1CCC(C(=O)NCCC2=CCCCC2)CC1 | active: 23.1 µM | – |
| CCN(CC)c1ccc(NC(=O)CN2C(=O)NC3(CCc4ccccc43)C2=O)cc1 (centres undefined) | inconclusive [inhibitor, single point] | – |
| CCOC(=O)C1(CCOc2ccccc2)CCN(Cc2cccc3nonc23)CC1 | inconclusive [inhibitor, single point] | – |
| Cc1ccc2nc(-c3ccc(SCC(=O)N4CCc5ccccc54)nc3)[nH]c2c1 | inconclusive [inhibitor, single point] | – |
| Cn1c(=O)n(Cc2ccccc2Cl)c(=O)c2c1nc1n2CCN1c1ccccc1 | – | inactive: -7.16% |
| O=C(Nc1ccc(F)c(Cl)c1)C1Cc2c(-c3ccc4c(c3)OCO4)ccnc2O1 (centres undefined) | inconclusive [inhibitor, single point] | – |
| COCCN=c1scc(-c2cc(OC)ccc2OC)n1/N=C/c1c[nH]c2ccccc12 | inconclusive [inhibitor, single point] | – |
| CCOc1ccc(NC(=O)CN(c2cc(C)cc(C)c2)S(=O)(=O)c2c(C)noc2C)cc1 | inconclusive [inhibitor, partial curve] | – |
| Cc1csc(=Nc2ccc(S(=O)(=O)N3CCOCC3)cc2)n1Cc1ccco1 | active: 23.1 µM | – |
| Cc1ccc(NC(=O)CN2CCC(NC(=O)c3ccccc3F)CC2)cc1C | inconclusive [inhibitor, full curve, poor fit] | – |
| CCc1nn(CCCN2CCN(c3cccc(Cl)c3)CC2)c(=O)n1CCOc1ccccc1 | active: 11.6 µM | – |
| COc1cc(C(=O)OCCCOC(=O)c2cc(OC)c(OC)c(OC)c2)cc(OC)c1OC | inconclusive [inhibitor, single point] | – |
| CCc1noc(C)c1C(=O)NCCc1ccccc1 | – | inactive: 17% |
| CC(Oc1ccccc1F)C(=O)Nc1ccc2ccccc2c1 (centres undefined) | – | inactive: -12.2% |
| CCC1CCCCN1C(=O)CSc1nnc(-c2ccc(Cl)cc2)o1 (centres undefined) | active: 20.6 µM | – |
| Cc1ccc2c(c1)/C(=N/N1C(=O)c3ccccc3C1=O)C(=O)N2 | inconclusive [inhibitor, single point] | – |

| SMILES | Potency | activity change, negative = growth inhibition |
| --- | --- | --- |
| Cc1ccc(C(=O)COC(=O)CCCC(=O)Nc2cc(C(F)(F)F)ccc2Cl)cc1C | inconclusive [inhibitor, single point] | – |
| CCCC1=C(C(=O)OCC)C(c2cccs2)n2ncnc2N1 (centres undefined) | – | inactive: -13% |
| Cc1cc(-n2cnc(-c3cn[nH]c3C)n2)no1 | – | inactive: -10.5% |
| COc1ccc(Cc2c(-c3ccco3)nc3ccc(Cl)cn23)c(C)c1 | inconclusive [inhibitor, single point] | – |
| C=CCOn1c(=O)c(=O)n(OCc2ccccc2)c2ccccc21 | – | inactive: -12.8% |
| O=C(CCNc1cccc(F)c1)c1cccc([N+](=O)[O-])c1 | active: 5.8 µM | – |
| O=C(O)CCn1cc(C2CC(c3ccccc3)=NN2c2ccccc2)c(-c2ccccc2)n1 (centres undefined) | – | inactive: 2.19% |
| CC(C)CCSc1ncnc2c1oc1nc3c(cc12)COC(C)(C)C3 | inconclusive [inhibitor, single point] | – |
| C/C(=N\NC(=O)Cn1cc([N+](=O)[O-])cn1)c1ccc(O)cc1 | – | inactive: -28.1% |
| Fc1cnc(N2CCc3ccccc32)nc1N1CCc2ccccc21 | inconclusive [inhibitor, partial curve] | – |
| CCN(CC)S(=O)(=O)c1ccc(NC2c3ccccc3C(=O)N2c2ccc(C)cn2)cc1 (centres undefined) | inconclusive [inhibitor, single point] | – |
| COc1ccc(C(=O)NCc2ccc3c(c2)CCN3C(C)=O)cc1OC | – | inactive: 13.6% |
| Cc1oc(-c2ccc(C(=O)NCCCOC(C)C)cc2)nc1CS(=O)(=O)c1ccccc1 | inconclusive [inhibitor, single point] | – |
| O=C(CSc1ncn[nH]1)Nc1c(Br)cc([N+](=O)[O-])cc1Br | – | inactive: -0.109% |
| C[C@@H]1CN([C@@H](C)CO)S(=O)(=O)c2ccc(C#Cc3cccc(F)c3)cc2O[C@H]1CN(C)S(=O)(=O)c1cn(C)cn1 | active: 18.4 µM | – |
| COc1ccc(S(=O)(=O)Nc2c(F)cccc2F)cc1 | inconclusive [inhibitor, single point] | – |
| C/C(=N/OCO/N=C(/C)c1ccc(F)cc1)c1ccc(F)cc1 | – | inactive: -11.9% |
| COc1ccc(Cl)cc1NC(=O)c1[nH]c(C)c(C(C)=O)c1C | – | inactive: -5.24% |
| O=C(Nc1ccc(Cl)cc1)N1CCOC12CCCCC2 | – | inactive: -5.1% |
| O=c1cc(CSc2nnc(NC3CCCCC3)s2)nc2sccn12 | – | inactive: 20.9% |
| C#CCOCCOCCOCCNc1nc(N2CCN(C(=O)Cn3cc(CCCCN)nn3)CC2)nc(N2CCN(C(=O)Cn3cc(CCCN=C(N)N)nn3)CC2)n1 | – | inactive: 20% |
| COc1ccc(-c2nc3ccc(NC(C)=O)cc3c(=O)n2Cc2cccc(Cl)c2)cc1COc1ccc(NC(C)=O)cc1 | active: 11.2 µM | – |
| COc1ccc(-c2ccc(SCC(=O)N3c4ccccc4CC3C)nn2)cc1OC (centres undefined) | inconclusive [inhibitor, single point] | – |
| CC(C)(C)C(=O)Nc1ccc(N2CCCC2)cc1 | inconclusive [inhibitor, single point] | – |
